Results published in the supplement of paper PMC9174493.
The other results are listed elsewhere or left out. Single values of this set are uncertain. Values with irradiation are relative to irradiated vehicle.

Assays:
A549-Dual [1] = experiment: NF-kB reporter (SEAP) activity, viability-corrected, relative to vehicle (fold change vs vehicle); higher = more activation of STING-IRF / NF-kB immune response reporter; details: 10 µM
A549-Dual [2] = experiment: ISRE reporter (Lucia luciferase) activity, viability-corrected, relative to vehicle (fold change vs vehicle); higher = more activation of STING-IRF / NF-kB immune response reporter; details: 10 µM
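Throughout, for NF-kB reporter (SEAP) activity, viability-corrected, relative to vehicle: viability correction based on the alamar blue assay, with concentrations leaving 10% survival or less dropped.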

SMILES	NF-kB reporter (A549-Dual [1]; irradiation: 8 Gy/4 fr)	NF-kB reporter (A549-Dual [1]; irradiation: none)	ISRE reporter (A549-Dual [2]; irradiation: 8 Gy/4 fr)	ISRE reporter (A549-Dual [2]; irradiation: none)
COc1cc2nc(N(C)CCCNC(=O)C3CCCO3)nc(N)c2cc1OC.Cl (configuration not stated) [Alfuzosin HCl]	0.801	1.12	0.824	0.958
Oc1cc(O)c2c(c1)OC(c1ccc(O)c(O)c1)C(O)C2 (single isomer, unassigned; (+)) [(+)-Catechin]	1.06	0.763	0.949	0.525
CC1(C)C(C(=O)O)N2C(=O)CC2S1(=O)=O (configuration not stated) [Sulbactam]	0.977	1.11	0.946	0.755
CC(CN(C)C)CN1c2ccccc2Sc2ccccc21.CC(CN(C)C)CN1c2ccccc2Sc2ccccc21.O=C(O)C(O)C(O)C(=O)O (configuration not stated) [Alimemazine Tartrate]	0.716	0.617	0.826	1.02
CC(C)(C)c1cc(C(C)(C)C)c(NC(=O)c2c[nH]c3ccccc3c2=O)cc1O [Ivacaftor (VX-770)]	0.917	1.3	0.871	1.4
C1CNCCN1.CC12CCC3c4ccc(OS(=O)(=O)O)cc4CCC3C1CCC2=O (configuration not stated) [Estropipate]	0.719	1.13	0.659	0.641
Cl.O=C(O)/C=C/c1ccc(Cn2ccnc2)cc1 [Ozagrel HCl]	0.806	0.872	0.794	0.834
O=C1/C(=C2\Nc3ccccc3C2=O)Nc2ccccc21 [Indigo]	0.7	0.754	0.299	0.356
COc1ccc(C(=O)NCc2ccc(OCCN(C)C)cc2)cc1OC.Cl [Itopride hydrochloride]	0.819	1.65	0.979	1.37
CCCC(CCC)C(N)=O [Valpromide]	0.823	0.829	0.819	0.546
CC1CCc2cc(F)cc3c(=O)c(C(=O)O)cn1c23 (configuration not stated) [Flumequine]	1.06	1.09	1.02	0.873
CNC1CCCN(c2c(F)cc3c(=O)c(C(=O)O)cn(C4CC4)c3c2OC)C1.O.O (configuration not stated) [Balofloxacin Dihydrate]	0.998	0.967	0.893	1.04
CCCC(NC(=O)C1C2CCCC2CN1C(=O)C(NC(=O)C(NC(=O)c1cnccn1)C1CCCCC1)C(C)(C)C)C(=O)C(=O)NC1CC1 (configuration not stated) [Telaprevir (VX-950)]	0.441	0.996	0.438	1.11
O=C(CCCN1CC=C(n2c(=O)[nH]c3ccccc32)CC1)c1ccc(F)cc1 [Droperidol]	1.05	0.959	1.28	1.11
CC1=C(/C=C/C(C)=C/C=C/C(C)=C/C=C/C=C(C)/C=C/C=C(C)/C=C/C2=C(C)CCCC2(C)C)C(C)(C)CCC1 [Beta Carotene]	1.22	0.684	1.21	0.617
CCN(CC)C(=O)C1(c2ccccc2)CC1CN.Cl (configuration not stated) [Milnacipran HCl]	0.761	0.824	1.01	0.846
CCCc1nn(C)c2c(=O)[nH]c(-c3cc(S(=O)(=O)N4CCN(C)CC4)ccc3OCC)nc12.CS(=O)(=O)O [Sildenafil Mesylate]	0.8	0.976	0.867	0.858
O=C(Cn1ccnc1[N+](=O)[O-])NCc1ccccc1 [Benznidazole]	0.671	1.07	0.589	0.92
Nc1ncnc2c1ncn2C1OC(COP(=O)(O)OP(=O)(O)O)C(O)C1O (configuration not stated)	1.02	0.664	0.955	0.703
COc1ccc(CC(C)NCC(O)c2ccc(O)c(NC=O)c2)cc1.COc1ccc(CC(C)NCC(O)c2ccc(O)c(NC=O)c2)cc1.O=C(O)/C=C/C(=O)O (configuration not stated) [Formoterol Hemifumarate]	0.649	0.767	0.981	0.918
COc1cc2nc(N3CCN(C(=O)C4CCCO4)CC3)nc(N)c2cc1OC.Cl.O.O (configuration not stated) [Terazosin HCl Dihydrate]	0.855	0.682	1.09	0.721
N=C(N)NCCCCC1NC(=O)CCSSCC(C(N)=O)NC(=O)C2CCCN2C(=O)C(Cc2c[nH]c3ccccc23)NC(=O)C(CC(=O)O)NC(=O)CNC1=O (configuration not stated) [Eptifibatide Acetate]	1.04	1.85	0.805	1.23
O=C(O)c1ccncc1 [Isonicotinic acid]	0.768	0.664	0.989	0.627
O=C(N/N=C/c1ccc([N+](=O)[O-])o1)c1ccc(O)cc1 [Nifuroxazide]	1.01	1.24	0.556	1.49
CC(C)(C)C1CCC(CC2=C(O)C(=O)c3ccccc3C2=O)CC1 (configuration not stated) [Buparvaquone]	1.9	2.43	0.208	0.682
CC(=O)Nc1c(I)c(NC(C)=O)c(I)c(C(=O)O)c1I [Diatrizoic acid]	0.946	0.759	0.828	0.412
CC(=O)NC1C(O)CC(O)(C(=O)O)OC1C(O)C(O)CO (configuration not stated) [N-Acetylneuraminic acid]	0.678	1.42	0.669	0.862

SMILES	NF-kB reporter (A549-Dual [1]; irradiation: 8 Gy/4 fr)	NF-kB reporter (A549-Dual [1]; irradiation: none)	ISRE reporter (A549-Dual [2]; irradiation: 8 Gy/4 fr)	ISRE reporter (A549-Dual [2]; irradiation: none)
Cc1ccc(S(=O)(=O)O)cc1.O [p-Toluenesulfonic acid monohydrate]	1.13	0.899	1.04	0.7
CCCCC(CC)CN1CN(CC(CC)CCCC)CC(C)(N)C1 (configuration not stated) [Hexetidine]	1.02	1.08	1.17	2.67
CN1CCc2cc3c(cc2C(=O)Cc2ccc4c(c2C1)OCO4)OCO3 [Protopine]	0.94	0.991	0.863	1.73
CCCCCCCC(=O)O [Octanoic acid]	1.09	0.675	1.05	0.474
OCC1OC(c2ccc(F)c(Cc3cc4ccccc4s3)c2)C(O)C(O)C1O (configuration not stated) [Ipragliflozin (ASP1941)]	0.882	0.948	0.899	1.11
O=C(Nc1cc(Cl)cc(Cl)c1O)c1c(O)c(Cl)cc(Cl)c1Cl [Oxyclozanide]	2.05	3.23	0.395	1.12
COc1cc2c(cc1OC)C(=O)C(CC1CCN(Cc3ccccc3)CC1)C2.Cl (configuration not stated) [Donepezil HCl]	0.772	0.555	0.989	0.649
CCOc1ccc(CC2NC(=O)CCSSCC(C(=O)N3CCCC3C(=O)NC(CCCN)C(=O)NCC(N)=O)NC(=O)C(CC(N)=O)NC(=O)C(C(C)O)NC(=O)C(C(C)CC)NC2=O)cc1 (configuration not stated) [Atosiban Acetate]	0.825	0.724	0.83	0.711
CC(C)CCCC(C)CCCC(C)CCCCC(C)CCCC(C)CCCC(C)C (configuration not stated) [Squalane]	0.886	0.993	0.849	0.787
Cc1cc(C(=O)NNCc2ccccc2)no1 [Isocarboxazid]	0.588	0.972	0.534	0.596
CCOC(=O)C(CCc1ccccc1)NC(C)C(=O)N1Cc2ccccc2CC1C(=O)O.Cl (configuration not stated) [Quinapril HCl]	0.835	1.11	0.673	0.594
CCCCCCCCCC(=O)NC1C(Oc2c3cc4cc2Oc2ccc(cc2Cl)C(OC2OC(CO)C(O)C(O)C2NC(C)=O)C2NC(=O)C(NC(=O)C4NC(=O)C4NC(=O)C(Cc5ccc(c(Cl)c5)O3)NC(=O)C(N)c3ccc(O)c(c3)Oc3cc(O)cc4c3)c3ccc(O)c(c3)-c3c(OC4OC(CO)C(O)C(O)C4O)cc(O)cc3C(C(=O)O)NC2=O)OC(CO)C(O)C1O (configuration not stated) [Teicoplanin]	0.729	0.828	0.762	0.945
CC(=O)O.CCC(C)C(NC(=O)C(Cc1ccc(O)cc1)NC(=O)C(NC(=O)C(CCCNC(=N)N)NC(=O)C(N)CC(=O)O)C(C)C)C(=O)NC(Cc1c[nH]cn1)C(=O)N1CCCC1C(=O)NC(Cc1ccccc1)C(=O)O (configuration not stated) [Angiotensin II human Acetate]	0.779	1.24	0.733	0.996
CO/N=C(\C(=O)NC1C(=O)N2C(C(=O)[O-])=C(C[n+]3cccc4c3CCC4)CSC12)c1csc(N)n1.O=S(=O)(O)O (configuration not stated) [Cefpirome sulfate]	0.771	0.932	0.869	0.803
O=C(O)c1ccc2nc(-c3cc(Cl)cc(Cl)c3)oc2c1 [Tafamidis]	0.614	1.01	0.581	0.693
Cc1cc(=O)oc2cc(O)cc(O)c12 [5,7-Dihydroxy-4-methylcoumarin]	0.791	0.751	0.573	0.382
CN1CC(=O)NC1=N [Creatinine]	0.744	0.694	0.748	0.665
Cl.Cl.OCCN1CCN(CC/C=C2/c3ccccc3Sc3ccc(C(F)(F)F)cc32)CC1 [Flupenthixol dihydrochloride]	0.404	0.769	0.415	1.01
CC(=O)NCCCS(=O)(=O)[O-] [Acamprosate Calcium]	0.625	1.23	0.478	0.664
Nc1nc2c(ncn2C2CC(O)C(CO)O2)c(=O)[nH]1 (configuration not stated) [2'-Deoxyguanosine monohydrate]	0.903	0.642	0.948	0.574
CCc1c(C)[nH]c2c1C(=O)C(CN1CCOCC1)CC2.Cl (configuration not stated) [Molindone hydrochloride]	1.04	1.52	0.673	0.729
O=c1cc(-c2ccccc2)oc2cc(O)c(O)c(O)c12 [Baicalein]	0.541	0.713	0.295	0.296
CN(C)CCn1nnnc1SCC1=C(C(=O)O)N2C(=O)C(NC(=O)Cc3csc(N)n3)C2SC1.Cl.Cl (configuration not stated) [Cefotiam hydrochloride]	0.808	0.866	0.804	0.672
CCOCCn1c(C2CCN(CCc3ccc(C(C)(C)C(=O)O)cc3)CC2)nc2ccccc21 [Bilastine]	0.454	0.465	0.555	0.487
COS(=O)(=O)[O-].C[n+]1c2ccccc2nc2ccccc21 [Phenazine methosulfate]	1.88	3.42	0.35	1.09
CC1/C=C/C=C/C=C/C=C/C=C/C=C/C=C/C(OC2OC(C)C(O)C(N)C2O)CC2OC(O)(CC(O)CC(O)C(O)CCC(O)CC(O)CC(=O)OC(C)C(C)C1O)CC(O)C2C(=O)O (configuration not stated) [Amphotericin B]	0.886	1.85	0.923	1.53
